Results on 57 sequences are retold here after the supplement of paper PMC11417369.

± gives the standard deviation of the averaged measurements. The list shows a part of the results.

The assay has as its system PfAP2-EXP AP2 domain (GST-tagged). Description: gcPBM binding intensity (ln(normalized median fluorescence intensity)); higher = stronger DNA binding. The method in brief:
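Each value is the highest Masliner-normalised natural-log median intensity across replicate spots of either orientation of a probe. The probes were primer-extended double-stranded 36-bp intergenic genomic sequences on an Agilent 4 × 180k array, alongside negative controls, exposed for 1 h to GST-tagged P. falciparum DNA-binding domains expressed in E. coli. Bound protein was picked up with Alexa488 anti-GST antibody and scanned at 488 nm.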
As for “AAAAAACAAAAAATTACACACATATATAAATATATT [CACACA_site2317]”, the “gcPBM binding intensity (ln)” value worked out at 8.12 ± 0.33.

Turning to “ATGTGTATATATTATTGTACATATATATATATATAT [XGTACX_site4627]”, the “gcPBM binding intensity (ln)” value is 10.3 ± 0.2.

As for “ACATATATATAAATATATATATATATATATATATAT [CACACA_negctrl_site874]”, the “gcPBM binding intensity (ln)” value stood at 10 ± 0.56.

As for “ATGGTAAGTATTTTATGTACATATATATTTATATAA [XGTACX_site4003]”, the “gcPBM binding intensity (ln)” value was determined as 8.59 ± 0.2.

For the sequence “AAAAAAAAAAAAAAAAGTACTAATTGAATATTAAAC [XGTACX_site3383]”, the “gcPBM binding intensity (ln)” value was found to be 8.41 ± 0.37.

Turning to “TACACCCATAGACACACACACACGCATAAAAAAAAA [CACACA_site8428]”, the “gcPBM binding intensity (ln)” value is 8.47 ± 0.4.

Take “AGGATACACAGACACACACACATATATATATATATA [CACACA_site907]”: the “gcPBM binding intensity (ln)” value was 10 ± 0.45.

As for “TAAATAGATGTTTTATGTACGTATAAATAAAAAAAA [XGTACX_site3412]”, the “gcPBM binding intensity (ln)” value is 8.55 ± 0.38.

For the sequence “ATTAAAAATATAGTCACACATACACCCATATATATT [CACACA_site5394]”, the “gcPBM binding intensity (ln)” value was determined as 8.43 ± 0.48.

As to “TTTTTTTAAAGACATGCATGTAATATTTAAATCATT [TGCATGCA_site495]”, the “gcPBM binding intensity (ln)” value is 8.93 ± 0.49.

On to “AAAAAAAATGGATGATCACACACTTCATAAAAATTG [CACACA_site2213]”, for which the “gcPBM binding intensity (ln)” value is 8.39 ± 0.56.

Take “AATATATTTTTTCACTGTACTTTTATTATATATACA [XGTACX_site8312]”: the “gcPBM binding intensity (ln)” value came out at 8.97 ± 0.36.

Turning to “ATAATTTTTTGATTTGCATGTAATAAATATATGATA [TGCATGCA_site384]”, the “gcPBM binding intensity (ln)” value was determined as 8.84 ± 0.28.

As for “GATTTTTTTTTGTGGACACACAGAAATAAATTTATA [CACACA_site327]”, the “gcPBM binding intensity (ln)” value is 8.57 ± 0.27.

As to “ATACAACGATATATATATATACAAATACATATTTAT [CACACA_negctrl_site268]”, the “gcPBM binding intensity (ln)” value was 8.42 ± 0.55.

Take “CACATACAGATATATACACACAAATATATATACTCA [CACACA_site4591]”: the “gcPBM binding intensity (ln)” value stood at 8.36 ± 0.38.

For “ACAACTCGGAAGGTTTGTACTTAAAGTATAATTAAG [XGTACX_site737]”, the “gcPBM binding intensity (ln)” value came to 8.43 ± 0.35.

Turning to “TTTGTAAAACTATATTGTACTTTTATATATCTACAA [XGTACX_site5507]”, the “gcPBM binding intensity (ln)” value turned out to be 8.44 ± 0.34.

As to “TATATACATGCATATACACACATATATTTATTTATA [CACACA_site6327]”, the “gcPBM binding intensity (ln)” value was found to be 8.7 ± 0.33.

Turning to “AATTGGAAGAAAAAAAAGGAAGGAAAGTTATTACAT [GTGCAC_negctrl_site74]”, the “gcPBM binding intensity (ln)” value worked out at 8.62 ± 0.41.

Take “TCTTGAATAACAAAAAAATGTGCCAACAAAATAAAT [XGTACX_negctrl_site172]”: the “gcPBM binding intensity (ln)” value worked out at 8.79 ± 0.42.

Consider TCATACATGGTGTGTTTGCACTTGACCTATATTCAT, for which the “gcPBM binding intensity (ln)” value is 8.59 ± 0.35.

In the case of “GTATATATGTATGTATGTACGTATATAGTTATGTAT [XGTACX_site6769]”, the “gcPBM binding intensity (ln)” value came to 8.71 ± 0.28.

As to “ATAAAAAAATTAAATACATGCACATATACACATACA [TGCATGCA_site129]”, the “gcPBM binding intensity (ln)” value is 8.96 ± 0.31.

As to “TTTATTTTTTCCAAGTCACACATGTTTTGATATATT [CACACA_site4946]”, the “gcPBM binding intensity (ln)” value was 8.81 ± 0.4.

“TACTGAAATAATTATTTAAACGTTTTTATATGTATT [CACACA_negctrl_site487]”: the “gcPBM binding intensity (ln)” value is 8.56 ± 0.43.

With “TAAAAAGTATATAAGAGTACACATATTTATAAATAT [XGTACX_site3084]”, the “gcPBM binding intensity (ln)” value was determined as 8.72 ± 0.28.

In the case of “AGACTTTGTACAAACACACACATGAGCACAATATTA [CACACA_site6755]”, the “gcPBM binding intensity (ln)” value came out at 8.88 ± 0.5.

In the case of “TATATATCAATATGCACACACAAGAAGTAATTATAA [CACACA_site7487]”, the “gcPBM binding intensity (ln)” value came out at 8.89 ± 0.37.

In the case of “ATAAACAAAGTTAAATGTACAAAGGGGTAAAAAAAA [XGTACX_site83]”, the “gcPBM binding intensity (ln)” value amounted to 9.05 ± 0.78.

Take “AACAAATTTTTTTTTCCTTTTTTTTTTTTACTTCAT [CACACA_negctrl_site1214]”: the “gcPBM binding intensity (ln)” value worked out at 8.31 ± 0.71.

For “TTTTTTTTTCGGAAAAGTACAAAACTTTTTTATAAT [XGTACX_site4670]”, the “gcPBM binding intensity (ln)” value is 8.26 ± 0.33.

With “AAATAAATAATATGTAAACACACAAAAAATAAAAAT [CACACA_site8307]”, the “gcPBM binding intensity (ln)” value was 8.77 ± 0.45.

For the sequence “TTATTAACCAAACGCACATGCAAAATATATTATATA [TGCATGCA_site915]”, the “gcPBM binding intensity (ln)” value worked out at 8.9 ± 0.34.

With “ACACAATTGAAATAGTGTACAAAATGTTGTTACATA [XGTACX_site8671]”, the “gcPBM binding intensity (ln)” value is 8.38 ± 0.33.

Consider “TTTTTTTTTTTCGGGGGTACTAATATATTATTAATA [XGTACX_site7809]”, for which the “gcPBM binding intensity (ln)” value was 10.4 ± 0.34.

Turning to “GTTTTTAAGAAAAACACACACTCCTGTTATTTTATA [CACACA_site3696]”, the “gcPBM binding intensity (ln)” value was found to be 8.41 ± 0.4.

With “AACAAAATTGAAGGAACACACATACAGATATATATA [CACACA_site4264]”, the “gcPBM binding intensity (ln)” value was 8.91 ± 0.38.

Consider “ATAGAAAAAATATACACACACTTATTAAATAAAAAT [CACACA_site7540]”, for which the “gcPBM binding intensity (ln)” value turned out to be 8.69 ± 0.33.

As for “TAATAATTAATTAATATAATATTTTTTCATAATTAT [XGTACX_negctrl_site602]”, the “gcPBM binding intensity (ln)” value turned out to be 8.22 ± 0.4.

Take “CATGTGCATATTAAATGTACATATATACATATATAC [XGTACX_site857]”: the “gcPBM binding intensity (ln)” value was 8.835 ± 0.064.

In the case of “ATATAGGTATTTAATACACACAAAACTTTCATTCCA [CACACA_site7627]”, the “gcPBM binding intensity (ln)” value worked out at 8.41 ± 0.38.

As to “ATATAAATATATTGCACACACAATTATTATTATTAT [CACACA_site7147]”, the “gcPBM binding intensity (ln)” value was 8.51 ± 0.092.

In the case of “AAGGATGATACAACTTGTACATATTTGCTTAATATA [XGTACX_site764]”, the “gcPBM binding intensity (ln)” value is 8.54 ± 0.28.

For the sequence “TATAATGTTAAATAATGTACATATTTTTTTTTTTTT [XGTACX_site4721]”, the “gcPBM binding intensity (ln)” value came to 8.29 ± 0.34.

With “AAAGCTAATATTATATGTACTTATATATTTATATAT [XGTACX_site4474]”, the “gcPBM binding intensity (ln)” value came to 8.38 ± 0.28.

As for “AAATAAATGAAACACACACACACAAAAAAAAAAAAC [CACACA_site2625]”, the “gcPBM binding intensity (ln)” value stood at 8.69 ± 0.53.

For “ATATAAATCTACACCGCACACAAAAACAACAAATAT [CACACA_site2506]”, the “gcPBM binding intensity (ln)” value worked out at 8.95 ± 0.59.

“TGAAATTCCATAAAATGTACATATTAGTTTAATTCA [XGTACX_site4031]”: the “gcPBM binding intensity (ln)” value is 8.23 ± 0.36.

For “AATATATTTAATCATACACACATTTATGTACCTATA [CACACA_site1718]”, the “gcPBM binding intensity (ln)” value came to 8.8 ± 0.39.

On to “TCGCCCTACAATTTGTTTATATATTAAATAAAATTT [CACACA_negctrl_site883]”, for which the “gcPBM binding intensity (ln)” value is 8.69 ± 0.42.

With CATCATCTTTTAAAGGTGCATAATAATATTGTTAAT, the “gcPBM binding intensity (ln)” value amounted to 8.94 ± 0.5.

For the sequence “GTCTATTATTTTTGAAGTACAAAAATTTTAGTTAAA [XGTACX_site4708]”, the “gcPBM binding intensity (ln)” value was determined as 8.6 ± 0.29.

Turning to “ATGTTCTTTAAAACCACACACCCCCCAACCCCCCTC [CACACA_site2373]”, the “gcPBM binding intensity (ln)” value amounted to 10.6 ± 0.13.

“GAAATAAATATAATATATATATATATATATATATGT [TGCATGCA_negctrl_site216]”: the “gcPBM binding intensity (ln)” value came to 8.545 ± 0.021.

As for “AAAAATAAATATATATGTACACATATGTATACAATA [XGTACX_site4692]”, the “gcPBM binding intensity (ln)” value was 8.38 ± 0.23.

As to “GGTATACACAGACATGCATGTAATTATATATAGGGA [TGCATGCA_site83]”, the “gcPBM binding intensity (ln)” value was determined as 9.6 ± 0.42.
